According to the supplement of paper PMC11417369:
± gives the standard deviation of the averaged measurements. This is one part of the list.

The sequences below were run on PfAP2-I AP2 domain 3 (GST-tagged) (assay: gcPBM binding intensity (ln(normalized median fluorescence intensity)); higher = stronger DNA binding).
Method in brief: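 After 1 h on an Agilent 4 × 180k array of primer-extended double-stranded 36-bp intergenic genomic probes and negative controls, bound GST-tagged P. falciparum DNA-binding domains were detected with Alexa488 anti-GST antibody and scanned at 488 nm. The domains had been expressed in E. coli, and binding took place in 1× PBS with 1% milk, 0.2 mg/ml BSA, 0.5% salmon testes DNA and 0.03% Triton X-100. Binding intensity is the highest Masliner-normalised natural-log median intensity across replicate spots of either probe orientation.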

Sequence | gcPBM binding intensity (ln)
AAAATAATATATGTATGTACACAATTATTTATAAGT [XGTACX_site7267] | 7.96 ± 0.39
AAAAAAAAAAAAAACACACACACACGCAAATACATA [CACACA_site6474] | 8.38 ± 0.52
TCCTTAAATATAAAGGTGCTATGCAGACCTTATGTT [GTGCAC_site9472] | 8.17 ± 0.41
TTATAAATTCAATGTACTACACAAAATGAATTTAAT [XGTACX_site6683] | 7.82 ± 0.22
TACAGACATAGACACACACACACGCATAAAAAAAAA [CACACA_site6820] | 8.22 ± 0.45
ATATAAGTACGGCATGCATGCACATTTTTTTATTCC [TGCATGCA_site101] | 8.24 ± 0.86
TTCCTATAAAAAAACACACACATATAAATATAAATA [CACACA_site7154] | 7.68 ± 0.34
TAATACTTAAAATGTTGTACATAATAATTTTATATT [XGTACX_site5403] | 7.86 ± 0.23
TATAACAAGTAATGGTGTACATTATATTATGTAATA [XGTACX_site2761] | 7.76 ± 0.54
CATATGCGTCTTGCCTTGCACACTTTTATGAAAAAA [CACACA_site2055] | 8.5 ± 0.35
TATATATATATATATACATGCATTTCTCATGTACAT [TGCATGCA_site621] | 9.62 ± 0.71
GTCATCATAATCTATTGTACAAAAATTTATACAGAT [XGTACX_site1059] | 8.02 ± 0.45
ATAAATACATTAAAATGTACATAAAAATATTACTGG [XGTACX_site1484] | 7.68 ± 0.35
TATAAAAATAAGTATACACACAAAATGCGTAACTTT [CACACA_site1295] | 8.27 ± 0.91
TACATTAAACGAATAGTGCAAGAAGTATTCGTATAA [GTGCAC_site9939] | 9.28 ± 0.18
TTACAAAACCGATGTTGTACATTCAATAGATAATGT [XGTACX_site3806] | 7.72 ± 0.59
TAGTTGTGAGTTACATGTACATGTATTTATTTTTTA [XGTACX_site7088] | 7.84 ± 0.48
AATGTATAAAAGTTTTGTACATATTCTCACACATAT [XGTACX_site965] | 7.72 ± 0.49
ATATACCATATGCATGGTACACATTTACAACAAAAA [XGTACX_site3142] | 7.79 ± 0.43
ATAACGTAAACAATGTGGACACATACATAAATATAT [XGTACX_site707] | 7.86 ± 0.53
TTTATTAAATAAAGCACACACAACAACTTTTCACAA [CACACA_site4132] | 9.63 ± 0.45
GATAACAATATGTGTACACATTTATATCTCCACATA [CACACA_site5442] | 8.3 ± 0.13
ATATAGAATGTTTACACACGCAATAAATATATATAT [CACACA_site217] | 9 ± 0.042

Sequence | gcPBM binding intensity (ln)
GCGTATCATTTTAAAACACACAGGATTTTATAAGTA [CACACA_site1225] | 7.68 ± 0.7
ATGGTATAAAAAAATACACACTTATTTATATTCTTA [CACACA_site6370] | 7.54 ± 0.61
AAAAATAACATATAAACACACATATAGATTTATATA [CACACA_site7738] | 7.49 ± 0.37
TGTAGTCTGGAGAAGAGTACACAGTATCTGGTAGCT [XGTACX_site2036] | 7.78 ± 0.67
TTAAAAAATCACAACACACACACACGCAAAAAAAAA [CACACA_site6793] | 8.32 ± 0.4
AAATATTACATACACGCACACATTAAAATATTTAAA [CACACA_site5440] | 8.22 ± 0.33
ATGTACCTTCAAACTACACACAAATGAAGGAACACA [CACACA_site3330] | 7.79 ± 0.38
ATCTAATAAAAATACACACACATATGGTTTGTGAAT [CACACA_site6962] | 7.54 ± 0.4
TACATTATAAATATTACACACTTTATAAAATAATAA [CACACA_site6096] | 7.72 ± 0.32
ACCGTGGGAGGACACACACACACACGCACATATATA [CACACA_site6289] | 8.21 ± 0.47
AAATAACTTTTAAATACACACGTAAAATATATTGTG [CACACA_site9085] | 7.7 ± 0.52
TCCTTTTTTTTTTATGCACACACAATTATACATTCC [CACACA_site9287] | 10.3 ± 0.28
ATAATATTTTTATGTACACACCTTAATCCTTAAAAG [CACACA_site5881] | 8.07 ± 0.43
TTAACCACTAAAAGTACACACATATATACATATATA [CACACA_site3912] | 8.085 ± 0.049
TCTATTAATTAATATACACACATTATATATATATAT [CACACA_site8815] | 9.375 ± 0.049
AATATATATATATATATATTTTTGTTAGAATATGGA [CACACA_negctrl_site212] | 7.64 ± 0.28
AAATAAATAAATAGAGTGCATATATATATATATTTT | 10.01 ± 0.042
CTTTTTATTTATCATACACACACAGAAAAAAAAAAA [CACACA_site7935] | 8.17 ± 0.45
ATATACAAAGGATTAACACACATATTATTATAGATA [CACACA_site6966] | 7.58 ± 0.46
ATTATGCACAGACACACACACACACTACTAAAAAAT [CACACA_site7252] | 10 ± 0.66
ATAGGAGAAAAAGAATGTACGTATGATGTTGAAAAT [XGTACX_site7779] | 8.16 ± 0.65
AATTTTTAGAAGAACACACACATATATATTATGACC [CACACA_site246] | 7.75 ± 0.65
AAAAAAAATAAAAATATATATATATATATATAAATA [GTGCAC_negctrl_site676] | 7.82 ± 0.53

Sequence | gcPBM binding intensity (ln)
AAGCATTTTTTTTAAAGCCTGTTCATCATCCTTACC [CACACA_negctrl_site129] | 7.82 ± 0.25
TATTTATATATTTGTTGTACGTATTTATATATTCTT [XGTACX_site3622] | 7.87 ± 0.41
TTATATTAATATTATATTTAAAAATAAAATATAAAT [TGCATGCA_negctrl_site79] | 7.39 ± 0.11
ATTTTTATATATATCTGTACTAAAAAAAAAAAAAAA [XGTACX_site5258] | 8.03 ± 0.45
AGAAGTAAAAAAATAGCACACACACTAATACCAACA [CACACA_site8354] | 8.36 ± 0.45
AAACAAAAAAGAAAAACAATGAGATAAAGAAGAGAA [CACACA_negctrl_site804] | 7.82 ± 0.77
TTTAATTATTTATTTTGTACATATATTATATATATA [XGTACX_site5760] | 8.42 ± 0.69
AAAAGAAAAATATTCACACATATAAATAATATATAA [CACACA_site4201] | 7.29 ± 0.63
ATATATACATACATATGTACATATGTAGATATATTT [XGTACX_site1230] | 7.64 ± 0.42
ATTATGAAATATCGTGCACACACGAATAATATAAGA [CACACA_site1294] | 10.2 ± 0.27
TATTTGTTTAAATTCACACACGTATATATATTTATA [CACACA_site5651] | 7.74 ± 0.52
TACGTTTTAAAACACACACACAAAAAAAAAAAAAAA [CACACA_site3876] | 8.11 ± 0.38
ATTTTTTTTGTTTATTCTTATGTGGTTATTAAATTA [CACACA_negctrl_site1000] | 7.89 ± 0.79
AAAAGAGAAATGGGCACACACACACCCATTATATAT [CACACA_site1530] | 7.8 ± 0.76
ACCATATAAAGTTAGGTGCATTTGTATGTATCTTAC | 10.5 ± 0.44
TTATTTTGATCTGGTTGTACATATAATATATAGTGG [XGTACX_site357] | 8.08 ± 0.61
TCTTGTTCGCCCTATTGTACAAACATATATTGTGAT [XGTACX_site2884] | 8.32 ± 0.67
ATTAATTTGATTTTAATAAGAATATTTGTGGGGAAT [GTGCAC_negctrl_site198] | 7.75 ± 0.54
TGAATAATAAAAAATACACACACATATATATATATT [CACACA_site9146] | 7.58 ± 0.36
TTTTATTTTTGTTGGTCCCTCATTTAAGTTAATAAA [TGCATGCA_negctrl_site465] | 8.07 ± 0.4
TTTTCAATATATATATGCTGAATTTATAATTTGTAT [CACACA_negctrl_site1774] | 7.59 ± 0.32
ATATTGATTTGTGGCACACATATAATATATTCCTAT [CACACA_site3046] | 8.57 ± 0.58
CCTTTTTTTTTTTTATGTACTAAAATAAAATTAGAA [XGTACX_site5956] | 7.82 ± 0.35

Sequence | gcPBM binding intensity (ln)
AAATATTTATATGTTACACACTGTTTATAACTTTCT [CACACA_site6752] | 7.78 ± 0.7
ATAAATGACAGACACACACACAAAAAAAAAAAACAA [CACACA_site2626] | 7.75 ± 0.35
ACCCTATCTGTAACTACACACCGCATATTGTTTACT [CACACA_site5661] | 8.84 ± 0.028
CTTCTGTAATTATCACGTACATATAATAATTAAAAT [XGTACX_site8973] | 8.04 ± 0.22
TTTTTATCTTTGCTGTGTACATAAATAAAAATAACT [XGTACX_site7625] | 8.31 ± 0.35
TTTTTTTTGATAAGTTGTACAATGATATATATCCCT [XGTACX_site3560] | 7.84 ± 0.49
ATAGTTTAATTTATATGTACATATAATATTGATTTG [XGTACX_site7520] | 7.89 ± 0.41
TATATTTTATATTGGTGTACAATTTTTTTTTTTTTT [XGTACX_site4291] | 8.16 ± 0.33
TTACGCGCTTATTACACACACATACAAATAAGGATT [CACACA_site3486] | 8.06 ± 0.47
AAAAATAAAAAAAATACATGCAATGAAACATTTATT [TGCATGCA_site263] | 7.49 ± 0.81
AACAAAATAAAAAAAACATGCAAGAATTCTTATATG [TGCATGCA_site714] | 7.49 ± 0.78
ATTTGTATTGTATATGCACACATAGAACACTTTTTT [CACACA_site9373] | 9.35 ± 0.042
TTGTGTTTGAAAAAATGTACATGTGTCTTACAACAA [XGTACX_site8371] | 8.11 ± 0.47
TTATACAGATATTTAACACACATTTTATAAAGTGCC [CACACA_site4851] | 7.98 ± 0.47
ACAATTTATATTATATGTACTTAAAAAGTTCGTAAA [XGTACX_site6421] | 7.71 ± 0.42
TTTTATACATAAATATGTACGTATATATAATGAATT [XGTACX_site1337] | 7.84 ± 0.12
GCCTCATCGTAGCAGTGTACGTTTTTTTTTTTTTTT [XGTACX_site8648] | 8.97 ± 0.41
TATATATATTTATGTACACACACACCGATAAATAAA [CACACA_site4404] | 8.31 ± 0.39
TATAACATATGACACACACACATACATACACAAAAA [CACACA_site6935] | 8.16 ± 0.31
ATAACAACCCAATGTTGTACATTTAAATATAACGTA [XGTACX_site7114] | 7.69 ± 0.44
